Assay results as given in PubChem BioAssay AID488969 (Vanderbilt High Throughput Screening Facility, 2010).
Over roughly 110,000 compounds, “z-score” has its median near -0.1; the highest 2% begin near 2. Some of the results follow.

The compounds below were run against Metabotropic glutamate receptor 8 (Rattus norvegicus) (UniProt P70579) (assay: rat mGluR8 modulators via GIRK flux, primary screen, cell-based, thallium flux, HTS (AID 488969)). Conditions: HEK293 rat mGluR8, GIRK (G protein-gated inwardly rectifying potassium channel) thallium flux, FluoZin2; at 10 µM; stronger effect = higher value; submaximal glutamate (EC20) added with thallium.
Sequence of UniProt P70579 (P70579 whole entry, looked up): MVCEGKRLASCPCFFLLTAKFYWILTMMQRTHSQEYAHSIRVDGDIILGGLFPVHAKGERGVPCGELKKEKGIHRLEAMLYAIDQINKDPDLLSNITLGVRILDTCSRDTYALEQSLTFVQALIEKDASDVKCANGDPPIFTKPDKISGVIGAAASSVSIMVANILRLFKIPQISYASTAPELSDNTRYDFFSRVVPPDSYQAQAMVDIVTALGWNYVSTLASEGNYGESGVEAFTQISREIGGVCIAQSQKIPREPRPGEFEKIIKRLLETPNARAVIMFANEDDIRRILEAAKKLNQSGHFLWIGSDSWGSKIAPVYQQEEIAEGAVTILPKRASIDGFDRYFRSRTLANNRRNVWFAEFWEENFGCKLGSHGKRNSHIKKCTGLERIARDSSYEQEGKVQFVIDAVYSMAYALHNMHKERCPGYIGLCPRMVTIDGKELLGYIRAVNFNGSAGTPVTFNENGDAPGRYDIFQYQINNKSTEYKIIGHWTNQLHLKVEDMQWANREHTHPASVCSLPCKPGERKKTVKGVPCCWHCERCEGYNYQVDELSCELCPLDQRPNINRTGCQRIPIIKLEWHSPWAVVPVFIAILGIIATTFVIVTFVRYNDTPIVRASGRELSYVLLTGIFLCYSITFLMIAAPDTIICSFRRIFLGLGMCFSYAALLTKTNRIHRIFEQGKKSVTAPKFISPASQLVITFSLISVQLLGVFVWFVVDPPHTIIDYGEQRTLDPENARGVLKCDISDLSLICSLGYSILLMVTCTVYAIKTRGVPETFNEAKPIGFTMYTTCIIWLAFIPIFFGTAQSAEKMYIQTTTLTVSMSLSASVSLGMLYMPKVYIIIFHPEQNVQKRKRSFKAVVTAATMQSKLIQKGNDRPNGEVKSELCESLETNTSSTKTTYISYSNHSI
In the case of `Cc1cc2cc(C(c3nnnn3C(C)(C)C)N(Cc3ccco3)CC3CCCO3)c(=O)[nH]c2cc1C` (configuration not stated), the z-score is reported as -0.208. `OC(CNCc1ccccc1)(c1ccc(F)cc1)c1ccc(F)cc1` gave a z-score of -0.0331. For `O=C(CCC(=O)OCC(=O)c1ccc(-c2ccccc2)cc1)Nc1cccc2cccnc12`, the z-score was -0.0975. `COc1cc(/C=N/Nc2nc3ccccc3o2)cc(OC)c1O` was tested, and the z-score was 0.336. In the case of `Cc1ccc2cc(C#N)c(SCC(=O)NCc3ccco3)nc2c1`, the z-score is reported as -0.492. `Cc1cc(C(=O)CN2CCCC(C)C2)c(C)n1-c1ccc(F)cc1` (configuration not stated) was tested, and the z-score was 0.291. `CC(C)CNC(=O)CCCc1c[nH]c2ccccc12` gave a z-score of -0.801. `CCC(C)NC(=O)C1CCCN(S(=O)(=O)c2ccc(-n3cnnn3)cc2)C1` (configuration not stated) showed a z-score of -0.137. With `Cc1cc2cc(CNC(=O)c3cc4ccccc4o3)ccc2n1C` the z-score was -0.325. `O=C(CN1C(=O)CSc2ccccc21)N1CCc2ccccc21` gave a z-score of 0.0819. Compound `C/C(=N\NC(=O)c1ccc(Cl)c(S(=O)(=O)Nc2ccccc2Cl)c1)c1ccncc1` has a z-score of -0.516. `Cc1nc(NC2=NCN(CCCN3CCOCC3)CN2)nc2c(C)cccc12` gave a z-score of -0.0726. `N#CC1=C(N)C(C#N)(C#N)[C@H](c2ccsc2)[C@H]2COCC=C12` gave a z-score of -2.94. Compound `Cc1cc(C)c2c(-n3cccc3)c(NC(=O)OC(C)C)sc2n1` has a z-score of 0.00557. `CCOC(=O)c1c(C)c(C(=O)Nc2cc(OC)ccc2OC)c(C)n1CC` was tested, and the z-score was -0.853. In the case of `Cc1oc2c(c1C(=O)Nc1cccc(C(=O)O)c1)CCCC2`, the z-score is reported as -1.27. Compound `CN(C)CCNc1nc(-c2ccccc2)nnc1C(F)(F)F` has a z-score of 0.00442. `O=C(CSc1ncn[nH]1)Nc1ccnc2ccccc12` showed a z-score of 0.336. With `FC(F)(F)c1nc(Oc2ccccc2)c2ccccc2n1` the z-score was -0.264. `O=C(CCn1cccc1)Nc1ccccc1F` was tested, and the z-score was 0.0734. In the case of `CCN1CCCC1CNC(=O)Cn1cnc2ccc(S(=O)(=O)N3CCC(C)CC3)cc2c1=O` (configuration not stated), the z-score is reported as -0.269. Compound `CCOC(=O)Nc1cccc(NC(=O)c2cc(OC)cc(OC)c2)c1` has a z-score of -0.454. `O=C(CN(Cc1ccccc1)S(=O)(=O)c1ccccc1)N/N=C/c1ccccc1[N+](=O)[O-]` was tested, and the z-score was -0.136. In the case of `COCCNC(=O)c1cc2c(-c3ccc(Cl)cc3)nn(C)c2s1`, the z-score is reported as -0.509. `CCOC(=O)N1CCN(C(=O)CNCc2cccs2)CC1` showed a z-score of -0.15. For `COc1ccc(OC)c2c1sc(=NC(=O)c1ccco1)n2C`, the z-score was -0.674. Compound `CSc1nc2ccc3nc(NC(=O)C4COc5ccccc5O4)sc3c2s1` (configuration not stated) has a z-score of -0.811. `CC1=NOC(=O)/C1=C\c1ccc(-c2ccc(Cl)cc2Cl)o1` showed a z-score of -0.0912. Work on `COc1ccc(OC)c(NC(=O)CSc2nc3c(c(=O)n(C)c(=O)n3C)n2C)c1` yielded a z-score of -1.15. With `COc1ccccc1CN1CCN(S(=O)(=O)c2ccccc2)CC1` the z-score was 0.0607. Compound `CCOC(=O)CSc1nc(N)c2c3c(sc2n1)CCCC3` has a z-score of -1.37. For `O=C(CCN1C(=O)/C(=C/c2ccc(F)cc2)SC1=S)NNC(=O)c1cccnc1`, the z-score was -0.0239. `COc1ccc2[nH]c(O)c(N=NC(=N)N)c2c1` gave a z-score of 0.0859. `Cc1nc([N+](=O)[O-])c(Br)n1CC(=O)c1ccc(Cl)cc1` was tested, and the z-score was 0.631. `Cc1cc(SCC(=O)N(C)CC(=O)Nc2ccc(F)cc2)nc2ccccc12` showed a z-score of -0.218. `Nc1c(-c2cccc(Cl)c2)cnn1-c1cccc([N+](=O)[O-])c1` showed a z-score of -0.0889. With `C=CCNC(=O)c1onc(CSc2ccc(F)cc2)c1C(=O)O` the z-score was -0.2. Compound `CN(C)Cc1ccccc1Sc1ccc(Br)cc1` has a z-score of -0.253. `Cc1nnc(SCC(=O)NCc2ccccc2)n1-c1ccccc1` was tested, and the z-score was 0.254. `CC(=O)Nc1ccccc1OCC(=O)NC(C)c1ccccc1` (configuration not stated) gave a z-score of -0.299. `CCCCN(C(=O)Nc1ccc(Cl)cc1)C1CCN(C(C)=O)CC1` showed a z-score of 0.0166. Compound `CCCOc1ccc(C(CC(=O)O)NC(=O)c2ccc3c(c2)OCO3)cc1` (configuration not stated) has a z-score of -0.509. `Cc1ccccc1OCC(=O)NC1=NCCS1` gave a z-score of 0.0476. `C=CCc1ccc(OCC(O)COc2ccc(CC=C)cc2OC)c(OC)c1` showed a z-score of -0.174. Work on `CCn1c(SCC(=O)NC2CCCCC2C)nnc1-c1ccc(OC)cc1` (configuration not stated) yielded a z-score of 0.074. Compound `Cc1c(NS(=O)(=O)CC23CCC(CC2=O)C3(C)C)c(=O)n(-c2ccccc2)n1C` (configuration not stated) has a z-score of -0.269. In the case of `CCCC1CCC(c2ccc(C(N)=O)cc2)CC1` (configuration not stated), the z-score is reported as -0.0671. Compound `Cc1ccc(NC(=S)NCCC(c2ccccc2)c2ccccc2)c(C)c1` has a z-score of 0.245. Compound `CCOc1c2ccc(C(=O)NCCCCc3ccccc3)cc2nn1C` has a z-score of 0.0497. `O=C(O)c1ccc(Sc2nnnn2-c2ccccc2)c([N+](=O)[O-])c1` gave a z-score of -0.96. Compound `COc1ccc(C(=O)O/N=C(/C)c2cccs2)cc1` has a z-score of -0.391. In the case of `Cc1ccc(OCC(=O)c2c(O)c3ccccc3oc2=O)cc1C`, the z-score is reported as 0.229. `Cc1ccc(C(=O)OCC(=O)NCc2ccc3c(c2)OCO3)s1` gave a z-score of -0.0586. `CCOC(=O)c1ccc2[nH]cc(C(C)=O)c(=O)c2c1` gave a z-score of -0.0976. `CNc1nc(NC)nc(-n2c(C(F)(F)F)nc3ccccc32)n1` gave a z-score of -0.566. For `Cc1cc(C(=O)CSc2nnc(N)s2)c(C)n1-c1c(C)n(C)n(-c2ccccc2)c1=O`, the z-score was -0.0654. `Cn1cnnc1SCC(=O)OCN1C(=O)c2ccccc2C1=O` gave a z-score of 0.794. In the case of `Cc1cccc(NC2(C(F)(F)F)N=C(c3ccccc3)NC2=O)n1` (configuration not stated), the z-score is reported as -0.0598. For `CCOC(=O)c1oc2ccc(CNC(C)(C)C)c(Cl)c2c1C`, the z-score was 0.563. For `CCOc1nc(NC(=O)NS(=O)(=O)c2cccc(Cl)c2)nc(-c2ccccc2)n1`, the z-score was -0.242. `Cc1ccc(S(=O)(=O)N2CCOCC2)cc1NC(=O)COc1ncnc2ccccc12` showed a z-score of -0.311. With `NNc1nc(Nc2ccccc2)nc(N2CCCCC2)n1` the z-score was -0.323. In the case of `CN=C(Nc1cc(C)nn1CCC#N)c1ccc(F)cc1`, the z-score is reported as -0.419. `COc1ccc(NC(=O)c2c(C(F)(F)F)nn(C)c2SCc2ccccc2)cc1` gave a z-score of -0.388. `Fc1ccc(Sc2nc(-c3ccccc3)nnc2C(F)(F)F)cc1` gave a z-score of -0.000337. With `COC(=O)c1ccc(CN(C(C)=O)c2ccccc2)o1` the z-score was -0.52. `CS(=O)(=O)c1ccc2nc(NC(=O)c3cc(-c4ccccc4)nn3-c3ccccc3)sc2c1` gave a z-score of 0.0633. In the case of `CCOC(=O)c1ccc(NC(=S)N(CCCN2CCCCCC2)Cc2ccco2)cc1`, the z-score is reported as 0.0244. Compound `COC(=O)CCN(C)CCC(=O)OC` has a z-score of 0.0875. For `Cc1cc(C(=O)COc2cccnc2[N+](=O)[O-])c(C)n1-c1ccccc1`, the z-score was -0.0167. `COc1ccc(C(=O)Nc2cccc(-c3nc4ncccc4o3)c2C)cc1` gave a z-score of -0.279. `COc1ccc(Cl)cc1-n1c(=S)sc2c(=O)[nH]c(SCC(=O)NCC3CCCO3)nc21` (configuration not stated) gave a z-score of -0.241. With `COc1ccc(C(C#N)Nc2ccccc2OC)cc1` (configuration not stated) the z-score was 0.255. `CCN(CC)S(=O)(=O)c1ccc(C)c(NC(=O)CSc2nc3ccc(C)cc3[nH]2)c1` was tested, and the z-score was -0.268. With `O=C(Cn1nc(-c2ccccc2)ccc1=O)NCC1CCCO1` (configuration not stated) the z-score was -0.249. Compound `CCSC(=O)CCCCCCCCCCCO` has a z-score of -0.16. Work on `Nc1nonc1C(=O)NCCNC(=O)c1ccccc1F` yielded a z-score of -0.0271. `CCCOc1ccc(Cc2c(Cl)nc(SC)nc2OC)cc1` gave a z-score of -0.0544. In the case of `COCCn1c(=O)[nH]c(=O)c2c1nc(-c1ccc(-c3ccc(Cl)cc3[N+](=O)[O-])o1)n2Cc1ccccc1`, the z-score is reported as -0.623. With `Cc1cccc(N2CCN(CCNC(=O)c3cc4c(s3)CS(=O)(=O)C4)CC2)c1C` the z-score was -0.197. In the case of `COc1ccc(N2CCN(CCNC(=O)CCCn3c(=O)[nH]c4cc(Cl)ccc4c3=O)CC2)cc1`, the z-score is reported as -0.19. In the case of `CCOC(=O)c1cc(-c2ccc(F)cc2)n(CC(=O)Nc2nccs2)c1C`, the z-score is reported as -0.293. In the case of `CC(C)C(=O)Nc1cccc(C(=O)N2CCCCC2C)c1` (configuration not stated), the z-score is reported as -0.0477. `CC(C)OC(=O)CSc1nc2cccnc2n1C1CCCCC1` was tested, and the z-score was -2.12. With `O=C(c1ccc(F)cc1)C1CCN(C(=S)Nc2ccccc2)CC1` the z-score was -0.612. For `CCCCN(C(=O)NC(=O)Nc1cc(C)ccc1C)S(C)(=O)=O`, the z-score was 0.48. Compound `O=C(Nc1ccccc1)N1N=C(c2cccs2)CC1c1cccs1` (configuration not stated) has a z-score of 0.278. `CCc1c(C)c2cc(Cl)c(O)c(CN(C)C)c2oc1=O` showed a z-score of -0.143. With `CC(C(=O)N/N=C/c1ccc(N(C)C)c(Br)c1)N(c1ccccc1)S(C)(=O)=O` (configuration not stated) the z-score was 0.35. `Cc1ccc(Nc2nc3ccccc3s2)cc1` was tested, and the z-score was 0.0689. For `Cc1ccnc(SCCn2c(N3CCC(C)CC3)nc3c2c(=O)n(C)c(=O)n3C)n1`, the z-score was -0.0924. For `CC(=O)c1cccc(NC(=O)C2CCCN(S(C)(=O)=O)C2)c1` (configuration not stated), the z-score was -0.0733. `O=c1ccc(NS(=O)(=O)c2ccccc2)cn1Cc1ccc(Cl)c(Cl)c1` gave a z-score of -0.157. `Cc1ccc(Cl)cc1N1CCN(Cc2nnnn2Cc2ccco2)CC1` was tested, and the z-score was 0.331. Work on `CCCC(=O)Nc1ccc(C(=O)Nc2nnc(COC)s2)cc1` yielded a z-score of -0.351. Compound `COc1ccc(/C=N/n2c(SC)nnc(C(C)(C)C)c2=O)c(OC)c1` has a z-score of 0.277. `Cc1cc2n(n1)C(c1ccc(O)cc1)Nc1ccccc1-2` (configuration not stated) was tested, and the z-score was -0.195. Compound `O=[N+]([O-])c1ccc(CCNc2cccc3ccccc23)c([N+](=O)[O-])c1` has a z-score of -0.492. Compound `O=C(C(Cc1ccccc1)NS(=O)(=O)c1cccc2cccnc12)N1CCc2ccccc21` (configuration not stated) has a z-score of -0.802. With `NS(=O)(=O)c1ccc(NC(=O)c2ccccc2Cl)cc1` the z-score was 0.401. `O=C(CSc1nnc(CNc2ccc(F)cc2)n1Cc1ccco1)N1CCOCC1` gave a z-score of -0.292. Compound `COc1ccc(NC(=O)c2cnc(C)cn2)cc1-n1cnnn1` has a z-score of 0.218. `COC(=O)c1ccc(NC(=O)CSC2=Nc3ccccc3C3CC=NN23)cc1` (configuration not stated) was tested, and the z-score was -0.357. `O=c1c2ccccc2oc2nc3ccn(Cc4ccncc4)c(=O)c3cc12` was tested, and the z-score was -0.0205. Compound `CC(C)(C)C1CCC2(CC1)SCC(=O)N2c1ccccc1` (configuration not stated) has a z-score of 0.035. With `Cc1cc(NC(=O)COc2cccc(Oc3ccccc3)c2)no1` the z-score was 0.0723. `Cc1cc(O)c(NC(=O)c2ccc(Br)o2)cc1C` was tested, and the z-score was -0.0505. With `COc1ccc2[nH]cc(S(=O)(=O)c3ccc(F)cc3)c(=O)c2c1` the z-score was -0.447. `Clc1ccc(-c2noc(CN3CCCC3)n2)cc1` showed a z-score of 0.149. Work on `COc1ccc(Cl)cc1NC(=O)Nc1cccc([N+](=O)[O-])c1C` yielded a z-score of -0.128. In the case of `CN(CCNC(=O)c1cccc(N2CCCC2=O)c1)Cc1ccccc1`, the z-score is reported as 0.122. For `Cc1onc(-c2ccccc2)c1C(=O)Nc1ccon1`, the z-score was 0.0382.
